Reference: PubChem BioAssay AID1347428 (National Center for Advancing Translational Sciences (NCATS), 2020)
In all, about 91,000 compounds went through this assay and about 290 (0.32%) were called active. The inconclusive results got no clear call from the source; some entries with a clear call stand among them for comparison. The call rests on the fitted dose curve; in most records, active means well fitted inhibition curve with a large enough effect; inconclusive means small, poorly fitted or top-dose-only effect; inactive means no such curve, though single readings can be large or run the other way. Potencies of inconclusive entries are doubtful fits and often do not repeat.
Further: nearly all actives have a fitted effect of over 25% in size.
On the % scale 0 is the no-effect control and ±100 the full control effect; potency means the concentration at half of the fitted maximal effect; tags describe the fitted curve by direction and shape.

What follows are compounds tested against Single-stranded DNA cytosine deaminase (Homo sapiens) (UniProt Q9GZX7) (assay: Primary qHTS assay for inhibitors of Activation Induced Cytidine Deaminase (AID): AID signal). Details: AID deamination FRET fluorescence, UDG-coupled, 4 h; activity change, negative = inhibition: at 115 µM (top of the series).
Chain of UniProt Q9GZX7 (Q9GZX7 whole entry, looked up): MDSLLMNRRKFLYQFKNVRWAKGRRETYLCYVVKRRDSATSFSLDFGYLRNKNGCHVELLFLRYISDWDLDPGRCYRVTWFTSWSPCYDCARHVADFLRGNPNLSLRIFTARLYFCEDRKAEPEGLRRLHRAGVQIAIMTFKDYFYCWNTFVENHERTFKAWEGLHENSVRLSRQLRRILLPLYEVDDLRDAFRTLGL
CCOC(=O)c1ccc(N2C(=O)c3n[nH]c(-c4cccs4)c3C2c2ccc(C(C)C)cc2)cc1 (stereo unspecified) was tested, and the Potency was inconclusive: 39.8 µM [inhibitor, full curve, poor fit].
In the case of Cc1ccn2c(=O)cc(CSc3ccc4ccccc4n3)nc2c1, the “activity change, negative = inhibition” value is reported as inactive: -3.93%.
Cc1nc2c(C(=O)NCCc3ccccc3)cnn2c(C)c1Cc1c(F)cccc1Cl was tested, and the Potency was inconclusive: 31.6 µM [inhibitor, partial curve, poor fit].
CCOc1cc(Br)c(C2C(C#N)=C(N)Oc3cc4c(cc32)OCO4)cc1OCC (stereo unspecified) was tested, and the “activity change, negative = inhibition” value was inactive: -20.4%.
For Cc1cccc(-c2c3c(=O)n(C)c(=O)n(C)c3cn2-c2cc(N)c(Cl)cc2Cl)c1, the Potency was inconclusive: 50.1 µM [inhibitor, partial curve, poor fit].
For COC(=O)c1ccccc1NC(=O)CCC(=O)N1CCOc2ccccc21, the Potency was inconclusive: 2.82 µM [inhibitor, full curve, poor fit].
With CCc1nnc(NC(=O)c2nc(SCc3ccccc3C)ncc2Cl)s1 the Potency was inconclusive: 39.8 µM [inhibitor, partial curve, poor fit].
With CCOC(=O)N1CCc2c(sc(NCc3ccc(OC)c(OC)c3OC)c2C(=O)Nc2ccc(OC)cc2OC)C1 the “activity change, negative = inhibition” value was inactive: 257%.
In the case of Cn1cc(S(=O)(=O)N2CCCCCC2)cc1C(=O)NCc1ccccc1Cl, the Potency is reported as inconclusive: 70.8 µM [inhibitor, partial curve, poor fit].
In the case of CCOC(=O)c1cc(-c2ccccc2)n(CCC(=O)Nc2ccc(Cl)c(C(F)(F)F)c2)c1C, the Potency is reported as inconclusive: 44.7 µM [inhibitor, partial curve, poor fit].
With CCn1cc(C(=O)NCc2ccc(C)cc2)c(=O)c2cc(S(=O)(=O)N3CCCCCC3)ccc21 the Potency was inconclusive: 39.8 µM [inhibitor, partial curve, poor fit].
With COC(=O)c1[nH]c2ccccc2c1NC(=O)CCC1CCCC1 the “activity change, negative = inhibition” value was inactive: 9.51%.
For COc1ccc(S(=O)(=O)Oc2ccc3c(c2)O/C(=C\c2ccccc2C)C3=O)cc1, the “activity change, negative = inhibition” value was inactive: -10.7%.
With CC(CNC(=O)Cn1ccc2cc(S(=O)(=O)N3CCCCCC3)ccc21)c1ccccc1 (stereo unspecified) the Potency was inconclusive: 31.6 µM [inhibitor, full curve, poor fit].
For COc1ccc(Cl)cc1NC(=O)CN(C)S(=O)(=O)c1ccc2c(c1)CCCN2C(C)=O, the Potency was inconclusive: 89.1 µM [inhibitor, single point].
For CCc1ccc(-c2nc(CN3CCCC(C(=O)N4CCN(c5cc(Cl)ccc5C)CC4)C3)c(C)o2)cc1 (stereo unspecified), the Potency was inconclusive: 56.2 µM [inhibitor, partial curve, poor fit].
For CC(=O)Nc1cc(C(=O)NCc2ccc(C)cc2)ccc1Sc1ccc(C)cc1, the Potency was inconclusive: 17.8 µM [inhibitor, full curve, poor fit].
In the case of COc1ccc(NC(=O)C(c2ccc(C)cc2)N(C)C(=O)Cc2cccs2)cc1 (stereo unspecified), the Potency is reported as inconclusive: 50.1 µM [inhibitor, partial curve, poor fit].
With CCC(C(=O)Nc1ccccc1C(=O)OC)n1nc(C)c2c(C)n(-c3ccc(C)cc3)nc2c1=O (stereo unspecified) the Potency was inconclusive: 17.8 µM [inhibitor, full curve, poor fit].
With CC(Oc1cccc(Cl)c1)C(=O)NN (stereo unspecified) the “activity change, negative = inhibition” value was inactive: -2.35%.
Cc1nc(-c2ccc(Cl)cc2)sc1CCNC(=O)c1ccc(C(F)(F)F)cc1 was tested, and the “activity change, negative = inhibition” value was inactive: -4.32%.
Cc1c(CC(=O)O)c(=O)oc2cc(OCc3ccc4ccccc4c3)ccc12 was tested, and the Potency was inconclusive: 50.1 µM [inhibitor, partial curve, poor fit].
For COc1cccc(-n2cc(C(=O)NCc3ccccc3OC)c3ccccc3c2=O)c1, the Potency was inconclusive: 39.8 µM [inhibitor, single point].
In the case of O=C(NCc1ccc(Cl)cc1)C1CCCN(C(=O)c2cnn(-c3ccc(F)cc3)c2-n2cccc2)C1 (stereo unspecified), the Potency is reported as inconclusive: 56.2 µM [inhibitor, partial curve, poor fit].
With CCOCCCNC(=O)c1ccc(NC(=O)N2CCCCc3ccccc32)cc1 the Potency was inconclusive: 89.1 µM [inhibitor, single point].
In the case of CCN(CC)S(=O)(=O)c1cc(-c2nnc(Nc3ccc(OC)c(C(N)=O)c3)c3ccccc23)ccc1C, the Potency is reported as active: 35.5 µM.
Cc1ccc(C)c(S(=O)(=O)c2nnn3c2nc(N2CCOCC2)c2sccc23)c1 was tested, and the Potency was inconclusive: 39.8 µM [inhibitor, partial curve, poor fit].
With O=C(Nc1ccc2nc(SCCOc3ccccc3Cl)sc2c1)c1cccs1 the Potency was inconclusive: 25.1 µM [inhibitor, full curve, poor fit].
In the case of COc1ccccc1-c1nnc(SCCOc2ccccc2C)o1, the Potency is reported as inconclusive: 56.2 µM [inhibitor, partial curve, poor fit].
With CC(C)c1ccc(S(=O)(=O)c2cnc(SCC(=O)Nc3cccc(C(F)(F)F)c3)nc2N)cc1 the Potency was inconclusive: 8.91 µM [inhibitor, full curve, poor fit].
For O=C(NCc1cc2ccccc2[nH]1)c1cn[nH]n1, the “activity change, negative = inhibition” value was inactive: 50.6%.
For CCCCn1cc(S(=O)(=O)c2ccc(OC)cc2)c(=O)c2cc(F)c(N3CCOCC3)cc21, the Potency was inconclusive: 50.1 µM [inhibitor, partial curve, poor fit].
CCC(Sc1nnc2c(n1)[nH]c1ccccc12)C(=O)Nc1ccccc1OC (stereo unspecified) was tested, and the Potency was inconclusive: 31.6 µM [inhibitor, single point].
In the case of Cc1ccc(Nc2nc(C(=O)OCC(=O)c3ccccc3)cs2)cc1, the “activity change, negative = inhibition” value is reported as inactive: -7.15%.
Cc1ccc(-n2c(=O)c3sccc3n(CC(=O)N3CCCCC3C)c2=O)cc1C (stereo unspecified) was tested, and the “activity change, negative = inhibition” value was inactive: -1.29%.
CCOc1ccc(NC(=O)N(Cc2cn(CC)c3ccccc23)C2CCCCCC2)cc1 was tested, and the Potency was inconclusive: 14.1 µM [inhibitor, partial curve, poor fit].
Cc1cc(C(=O)N2CCN(c3cccc(Cl)c3)CC2)c2c(C)nn(-c3ccccc3Cl)c2n1 was tested, and the Potency was inconclusive: 39.8 µM [inhibitor, full curve, poor fit].
With CC(C)NS(=O)(=O)c1ccc(C(=O)NCC(=O)O)cc1 the “activity change, negative = inhibition” value was inactive: 2.86%.
CCn1cc(C(=O)N2CCN(c3cc(Cl)ccc3C)CC2)c(=O)c2cc(S(=O)(=O)N3CCCC3)ccc21 was tested, and the Potency was inconclusive: 22.4 µM [inhibitor, single point].
COc1ccc(Cl)cc1NC(=O)C1CCN(c2nccnc2Oc2ccccc2C)CC1 was tested, and the “activity change, negative = inhibition” value was inactive: -7.94%.
With COc1ccc2ccccc2c1C=C(C#N)c1ccccn1 the “activity change, negative = inhibition” value was inactive: 20.1%.
CCCN(C(=O)CCc1nc(-c2ccc(C)cc2)no1)c1ccc(OCC)cc1 was tested, and the Potency was inconclusive: 56.2 µM [inhibitor, partial curve, poor fit].
In the case of Cc1ccc(-c2nc(-c3nc(-c4ccc(C)cc4C)cs3)sc2C)cc1, the “activity change, negative = inhibition” value is reported as inactive: -7.63%.
For COc1ccc2cc(C(=O)N3CCN(S(=O)(=O)c4ccc(C)cc4)CC3)c(C)nc2c1, the “activity change, negative = inhibition” value was inactive: 1.07%.
For Cc1ccc(CNC(=O)c2ccc(Cn3c(SCc4ccc(F)cc4)nc4cccnc43)cc2)o1, the Potency was inconclusive: 10 µM [inhibitor, full curve, poor fit].
With CC1CCN(S(=O)(=O)c2cc(C(=O)N3CCN(c4cccc(Cl)c4)CC3)n(C)c2)CC1 the Potency was inconclusive: 44.7 µM [inhibitor, partial curve, poor fit].
For COc1cccc(OCC(=O)NC2CC(=O)N(c3cccc(OC)c3)C2)c1 (stereo unspecified), the Potency was inconclusive: 3.55 µM [inhibitor, full curve, poor fit].
For Cc1ccc(NC(=O)N2CCC3(CC2)Oc2ccccc2C(=O)N3Cc2ccc(F)cc2)cc1, the Potency was inconclusive: 17.8 µM [inhibitor, full curve, poor fit].
CCN(CC)C(=O)c1sc2c(c1C)c(=O)n(Cc1ccccc1)c(=O)n2Cc1cc(C)ccc1C was tested, and the Potency was inconclusive: 10 µM [inhibitor, full curve, poor fit].
With O=C(Nc1cccc(C(=O)OCc2cc(=O)n3c4c(sc3n2)CCCC4)c1)c1ccc(Cl)cc1 the Potency was inconclusive: 28.2 µM [inhibitor, partial curve, poor fit].
For CCOc1ccccc1Nc1nc2ccccc2nc1NS(=O)(=O)c1ccc(Cl)cc1, the “activity change, negative = inhibition” value was inactive: 18.5%.
COc1ccc(-c2nc(CN3CCC(C(=O)NCc4ccc(C)cc4)CC3)c(C)o2)cc1OC was tested, and the “activity change, negative = inhibition” value was inactive: -16.7%.
In the case of CCOc1ccc(C(=O)N(Cc2nc(-c3cccc(C)c3)no2)C(C)C)cc1, the Potency is reported as inconclusive: 28.2 µM [inhibitor, partial curve, poor fit].
In the case of Cc1cc(Br)cc(Cl)c1OCC(=O)Nc1cccc(N2CCCC2=O)c1, the Potency is reported as inconclusive: 22.4 µM [inhibitor, partial curve, poor fit].
For CCOc1ccc(NC(=O)c2cn(C3CCCCC3)c(=O)c3c2c2ccccc2n3C)cc1, the Potency was inconclusive: 28.2 µM [inhibitor, full curve, poor fit].
Cc1ccc(-c2cc(C(=O)N3CCN(Cc4ccncc4)CC3)c3ccccc3n2)o1 was tested, and the “activity change, negative = inhibition” value was inactive: 25.4%.
In the case of CC(C)(C)c1ccc(S(=O)(=O)c2cnc(SCC(=O)Nc3ccc4c(c3)OCCO4)[nH]c2=O)cc1, the Potency is reported as inconclusive: 39.8 µM [inhibitor, partial curve, poor fit].
With CCOC(=O)c1cc(-c2ccccc2)n(CCCC(=O)Nc2cccc(C)c2)c1C the Potency was inconclusive: 25.1 µM [inhibitor, full curve, poor fit].
For CCc1nc2ccccc2n1CCCCOc1cccc(C)c1, the Potency was inconclusive: 14.1 µM [inhibitor, partial curve, poor fit].
In the case of O=C(Nc1ccc(C(F)(F)F)cc1)c1cc(S(=O)(=O)N2CCCc3ccccc32)ccc1F, the Potency is reported as inconclusive: 100 µM [inhibitor, partial curve, poor fit].
For Cc1ccc2c(C)nc(Nc3nc(C)c(Cc4ccccc4)c(=O)[nH]3)nc2c1, the Potency was inconclusive: 17.8 µM [inhibitor, full curve].
